This is one part of the list. The main result of the screen is listed elsewhere. These columns were measured beside it and carry no call. The list favours compounds with an active or inconclusive main result.

The nature of the experiment: growth inhibition of WT strain, primary screen, mitochondrial fusion inhibitor project, WT and mutant strains, chemical genetic (AID 1362). Further: tested in S. cerevisiae. Particulars: mitochondrial fusion phenotypic screen, at 10 µM.
As for `Cc1nn2c(N3CCN(c4ccccn4)CC3)cc(C(C)C)nc2c1-c1ccccc1`, the inhibition stood at 95%.
As for `CCCCCN1C=CC(=C2C(=O)c3ccccc3C2=O)C=C1`, the inhibition was found to be 54.7%.
For the compound `N#CC(c1ccccc1)c1ccc2c(C(F)(F)F)cc(C(F)(F)F)nc2n1` (configuration not stated), the inhibition stood at 68.8%.
To `O=C(NCc1ccccn1)C(=O)Nc1nc(C23CC4CC(CC(C4)C2)C3)cs1` belongs -13.2%.
Take `Cc1ccc(Nc2ccc(C(=O)O)cc2N)cc1`: the inhibition is 18.1%.
Then `CC(=O)Oc1c(C)cc(Cl)cc1C(=O)Nc1ccc([N+](=O)[O-])cc1Cl`, with 84.8%; and `Cc1ccc2cc(CN(C(=O)c3ccco3)c3ccccc3C)c(=O)[nH]c2c1`, with 10.6%.
To `On1onc2c3cc(-c4ccccc4)nc3ccc21` belongs 72.8%; to `Cc1ccc(Cn2ccc(=O)c(OCc3c(Cl)cccc3Cl)c2C)cc1`, 74%; to `Fc1ccc(C(CCCn2nnc(-c3cccnc3)n2)c2ccc(F)cc2)cc1`, 2.32%.
Then `Cc1ccc(-c2csc3ncnc(Nc4ccc(N5CCOCC5)cc4)c23)cc1`, with 11.6%.
On to `Cc1cc2ncn(/N=C/c3cccnc3)c2cc1C`, for which the inhibition came out at 4.14%.
With `CCc1ccc(NS(=O)(=O)c2ccc(OC)c(C)c2)cc1`, the inhibition was 58.3%.
To `COc1ccc(Br)cc1/C=C/C(=O)c1ccc(NC(C)=O)cc1` belongs 72.8%; to `c1ccc2c(c1)oc1c(N3CCN(Cc4ccc5c(c4)OCO5)CC3)ncnc12`, 47.2%.
Then `Cc1ccc(S(=O)(=O)n2c3ccc(Cl)cc3c3nc(C)sc32)cc1`, with -0.23%; and `Cc1cccc(C2c3[nH]c4ccccc4c3CCN2C(=O)c2noc3c2CCCC3)n1` (configuration not stated), with 41.8%.
Then `CCCS(=O)(=O)c1nnnn1-c1cccc(OC)c1`, with 72.2%; and `COc1ccc(S(=O)(=O)N2CCCCCC2)cc1C(=O)OCc1c(C)noc1C`, with 22.3%.
For `CCOc1ccccc1N1CCN(C(=S)NCc2ccc(Cl)cc2)CC1`, the inhibition amounted to 51.3%.
To `COc1ccc(CN(C)C(c2ccccc2)c2nnnn2-c2ccccc2C)c(OC)c1C` (configuration not stated) belongs 44.6%; to `CC(C)N(C(=S)Nc1cccc(C(F)(F)F)c1)C(C)c1ccccn1` (configuration not stated), 26%; to `CC12CCC(C(=O)Nc3nc4ccc(Br)cc4s3)(OC1=O)C2(C)C` (configuration not stated), 61.4%.
Then `COC(=O)c1c(NC(=O)c2nc3ccccc3s2)sc2c1CC(C)(C)NC2(C)C`, with 74.2%.
To `N=c1c2c(n(Cc3cccc(Cl)c3)c3c1CCC3)CCCC2` belongs 56.7%.
`COc1ccc(NC(=O)N2CCCC(c3nc(-c4ccc(C(C)C)cc4)no3)C2)cc1` (configuration not stated): the inhibition is 50.5%.
To `CC(C)c1ccccc1NC(=S)NC(C)c1ccccc1` (configuration not stated) belongs 49.7%; to `O=C(N/N=C/c1c[nH]c2ccccc12)c1[nH]c2ccc(Br)cc2c1-c1ccccc1`, 35.3%.
Then `FC(F)(F)c1cnc(N2CCC(=NOCc3ccc(Cl)cc3)CC2)c(Cl)c1`, with 8.34%.
Then `COc1ccccc1NC(=S)NCCC(c1ccccc1)c1ccccc1`, with 49%; and `CCCCCCCCCc1nc2sc3c(c2c(=O)n1NC(=O)c1ccccc1[N+](=O)[O-])CC(C)(C)OC3`, with 30.5%; and `O=C(C1=C[C@@H](C2CCCCC2)C[C@@H](OCc2ccc(CO)cc2)O1)N1CCN(Cc2ccccc2)CC1`, with 16.6%.
Consider `CC(C)c1ccc(OCc2nc(-c3ccccn3)no2)c(Br)c1`, for which the inhibition came out at 1.12%.
Then `Oc1ccccc1C1CC(c2cccs2)=NC(c2ccc(Cl)cc2)N1` (configuration not stated), with 73%.
Then `O=Nc1c(O)n(Cc2cccc(Cl)c2)c2ccccc12`, with 9.55%; and `CCc1cc(-c2n[nH]c(=S)n2Cc2ccccc2)cs1`, with 33.8%.
Then `CCOC(=O)N=Nc1c2ccccc2c2nc3no[nH]c3nc12`, with 94.6%.
In the case of `CC[n+]1c(/C=C/c2c[nH]c3ccccc23)ccc2cc(C)ccc21`, the inhibition was determined as 68.6%.
`CN1/C(=C/c2cc[n+](C)c3ccccc23)C=Cc2ccccc21`: the inhibition came out at 87.4%.
Consider `CCOc1cccc(-c2nn(-c3ccccc3)cc2/C=C(/C#N)C(=O)NCCCn2ccnc2)c1`, for which the inhibition was -6.04%.
Then `Cc1cccc2c1N(CCCOc1ccc(C(C)(C)C)cc1)C(=O)C2=O`, with 60.7%; and `Cc1ccc(NC(=S)N(Cc2ccc(Br)cc2)Cc2ccc(C(=O)O)cc2)cc1C`, with 1.05%; and `COc1ccc(C(=NNc2ccccc2C(=O)O)c2ccc(OC)cc2)cc1`, with -1.37%.
To `CCCCCC(=O)NNC(=S)NC(=O)c1ccc([N+](=O)[O-])cc1` belongs 47.4%; to `CCC(C)(C)c1ccc(OCCCC[n+]2ccccc2)c(C(C)(C)CC)c1`, 89.1%; to `CCN(CC)c1ccc(NC(=O)Nc2ccccc2C(F)(F)F)cc1`, 0.16%.
To `CC(C)c1ccc(-n2cccc2/C=C2/C(=N)N3C=CSC3=NC2=O)cc1` belongs 71.3%; to `O=C(c1ccc2c(c1)OCO2)N(Cc1cccs1)C1(C(=O)NC2CCCCC2)CCCCC1`, -3.29%; to `Clc1ccc(-c2nc3cnccn3c2NC2CCCC2)cc1`, 62.7%.
For the compound `COc1ccc(NC(=S)N(CCc2c(C)[nH]c3ccc(C)cc23)Cc2cccs2)cc1`, the inhibition was 20.6%.
To `N#CC(c1ccc(Cl)cc1)c1ccc2c(C(F)(F)F)cc(C(F)(F)F)nc2n1` (configuration not stated) belongs 84%; to `O=C(CSc1ncn[nH]1)NCc1ccccc1`, 2.93%; to `CN1CCN(c2cc(-c3ccccc3)nc3cc(-c4ccc(F)cc4)nn23)CC1`, 80.5%.
On to `CCn1c(=O)c(C(=O)Nc2nc3ccccc3[nH]2)c(O)c2ccccc21`, for which the inhibition stood at 57.2%.
To `COc1ccc(-c2nc(CN3CCCCC3c3nccn3C)c(C)o2)c(C)c1C` (configuration not stated) belongs 56.3%; to `Cc1ccc(C(C(=O)NC2CCCC2)N(C(=O)Cc2cccs2)c2ccc(C)c(C)c2)o1` (configuration not stated), 8.87%; to `Cc1sc(NC(=O)CSc2nnnn2C2CCCCC2)c(C#N)c1C`, 5.31%.
Then `CCc1ccc(Nc2cnn(-c3nc4ccccc4s3)c(=O)c2Cl)cc1`, with 53.6%.
Then `COc1ccc(OC)c(-c2c3cc(O)c(=O)cc-3oc3cc(O)c(O)cc23)c1`, with 47.8%; and `C#CCN(C)CC/C=C1\c2ccccc2CSc2ccccc21`, with 21.4%.
Turning to `Cc1ccc(NC(=S)N(Cc2ccco2)C(C)c2cccs2)c(Cl)c1` (configuration not stated), the inhibition is 19.6%.
Then `CSCc1cc(N2CCOCC2)nc(SCc2ccc(Cl)c(Cl)c2)n1`, with 15.1%.
Then `Cc1ccc2nc(-c3ccccn3)c(NC3CCCC3)n2c1`, with 62.5%; and `COc1ccc(-n2ncc3c(NCc4ccco4)ncnc32)cc1`, with 5.16%.
Then `CCCCC(=O)NC(=S)Nc1ccccc1N1CCCCC1`, with 13.2%; and `COc1ccc(C(CCNCc2ccc(F)cc2)c2ccc(F)cc2)cc1` (configuration not stated), with 37.2%.
For `Cc1cc(C)nc(NC(=O)/C=C/c2ccccc2Cl)c1`, the inhibition was found to be 33%.
Then `O=C(NC(=S)Nc1ccccc1N1CCCCC1)c1ccccc1`, with -4.72%; and `CCC1CCCCN1C(=O)c1cc(-c2ccc(Cl)c(Cl)c2)on1` (configuration not stated), with 31.6%; and `COc1cccc(Nc2c3c(nc4c(-c5ccccc5)c(C)nn24)CCC3)c1`, with 19.2%.
Then `Fc1ccc(CNC(=S)Nc2cccc(C(F)(F)F)c2)cc1`, with 30.7%.
For the compound `O=C(Oc1ccc2ccccc2c1Br)N1CCCCCC1`, the inhibition is 43.1%.
To `O=Nc1ccc(NOC(=O)c2ccccc2Br)cc1` belongs 28.2%; to `Clc1ccc(-c2nnc(-c3ccco3)nc2N2CCCCC2)cc1`, 61%.
Then `O=C(Nc1nc(-c2ccccn2)cs1)c1ccc2c(c1)OCCO2`, with 65.1%.
In the case of `O=C(/C(=C/O)N=Nc1cccc(C(F)(F)F)c1)c1ccccc1`, the inhibition was 69.2%.
Then `CCC1Oc2ccc(C)cc2N(CC(=O)N(Cc2ccc(C)o2)C2CCCC2)C1=O` (configuration not stated), with 2.3%; and `CCCc1sc(N)nc1-c1ccc(Cl)cc1`, with 57.4%.
To `Cc1[nH]c2ccccc2c1/C=N/NC(=O)C1CC1(c1ccccc1)c1ccccc1` (configuration not stated) belongs 14.4%; to `COc1ccc(S(=O)(=O)N2CC3CCCN3c3cc(C(F)(F)F)ccc32)cc1` (configuration not stated), 67%.
Then `Cc1ccc(SC(C)C(=O)Nc2ccccc2-c2ccccc2)cc1` (configuration not stated), with -2.25%.
For `Cc1cc(C)cc(NC(=O)c2ccc(Cn3nc(C)c(Cl)c3C)o2)c1`, the inhibition worked out at 53.4%.
To `O=C(CN1C(=O)COc2ccccc21)N(Cc1cccnc1)Cc1cccc(F)c1` belongs 6.6%; to `Cc1cc(C)nc(N2CCC(C(=O)N3CCN(c4cc(Cl)ccc4C)CC3)CC2)n1`, 26.3%; to `Cn1c(C(=O)N2CCN(c3cccc(C(F)(F)F)c3)CC2)cc2sccc21`, 55.6%.
As for `O=C(NC1CCCCCC1)C(=S)NCc1ccccc1`, the inhibition is 36.9%.
As for `CCCCOC(=O)c1ccc(NC(=O)c2ccccc2OC)cc1`, the inhibition was determined as 7.4%.
Then `CCc1ccc(-c2nc(CN3CCC(C(=O)N4CCN(c5ccccc5)CC4)CC3)c(C)o2)cc1`, with 50.7%.
To `COc1ccccc1NC(=O)CC1S/C(=N/N=C2\CCCc3ccccc32)NC1=O` (configuration not stated) belongs 2.48%; to `O=c1cc(-c2ccccc2Cl)oc2ccc([N+](=O)[O-])c(O)c12`, 45.3%; to `Cc1ccc(Nc2nc(-c3c(C)nc4ccccn34)cs2)cc1`, 68.5%.
As to `Cc1ccc(-c2cc(C(F)F)n3ncc(C(=O)N4CCc5ccccc5C4)c3n2)cc1`, the inhibition turned out to be 45.6%.
On to `O=P(OC1CCCCC1)(OC1CCCCC1)C(O)c1c(Cl)cccc1Cl` (configuration not stated), for which the inhibition amounted to 31%.
To `C=CCNC(=S)N/N=C/c1ccc(N(CC)Cc2ccccc2)cc1` belongs 45.3%.
Then `COC(=O)C1=C(C)NC2=C(C(=O)CC(C)(C)C2)C1c1cn(Cc2ccc(Br)cc2)nc1-c1ccccc1` (configuration not stated), with 13.8%; and `CN1CCN(c2nc(-c3ccccc3)nc(-c3ccccc3)c2C#N)CC1`, with 66.2%; and `O=C1c2cnc3nc(SCc4ccccc4)nn3c2CC2c3ccccc3CCN12` (configuration not stated), with 57.8%.
To `CC(C)(C)c1ccc(C(=O)Nc2cccc([N+](=O)[O-])c2)cc1` belongs 28.6%; to `Cc1cccc(NC(=O)c2ccc(N3CCCCC3)c([N+](=O)[O-])c2)n1`, 12.8%; to `O=C1CC(N(CCc2ccccc2)C(=S)Nc2ccccc2)C(=O)N1c1ccc(Br)cc1` (configuration not stated), 65.3%.
For `CC(C)CCNC(=O)CN(CC1CCCO1)C(=O)CCC(=O)Nc1ccccn1` (configuration not stated), the inhibition is -5.59%.
Regarding `CCC1=[N+](C)c2cccc3cccc(c23)N1C`, the inhibition was 41.1%.
On to `Cn1c(/C=C/N2CCOCC2)c(C(=O)c2ccc(Br)cc2)c(=O)n(C)c1=O`, for which the inhibition was determined as 14.9%.
`O=C(c1cccs1)N1N=C(c2ccccc2)CC1c1ccccc1` (configuration not stated): the inhibition came to 48.2%.
Then `CCOC(=O)c1cc2ccc3ccccc3c2s1`, with 30.1%.
To `CC(C)=CCC/C(C)=C/COc1ccc2ccc(=O)oc2c1` belongs 27%.
On to `CCn1cc(C(=O)N2CCc3ccccc32)c(=O)c2cc(S(=O)(=O)N(C)C3CCCCC3)ccc21`, for which the inhibition is -18.9%.

As a reminder, the inhibition is the relative decrease from the control value, in per cent.

Values taken from PubChem BioAssay AID1362 (SRMLSC, 2008).
